Measured values as given in the supplement of paper PMC4604168 (melanoma cell lines).
The list shows a part of the results. Single values are uncertain, as repeats are few or missing.

Assays:
Assay in all cases: cell count relative to DMSO control; melanoma cells; higher = more viable cells
Details in all cases: library dose: standard library concentration; 72 h
G361 = test system: G361
IPC-298 = test system: IPC-298
IST-MEL1 = test system: IST-MEL1
LB2518-MEL = test system: LB2518-MEL
LOXIMVI = test system: LOXIMVI
MEL-HO = test system: MEL-HO
MZ2-MEL = test system: MZ2-MEL
MeWo = test system: MeWo
RPMI7951 = test system: RPMI7951
RVH-421 = test system: RVH-421
SkMel28 = test system: SkMel28
SkMel2 = test system: SkMel2
SkMel30 = test system: SkMel30
SkMel5 = test system: SkMel5
UACC257 = test system: UACC257
UACC62 = test system: UACC62
WM115 = test system: WM115
WM1716 = test system: WM1716
WM1745 = test system: WM1745
WM3526 = test system: WM3526
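Also: cells treated in 1,536-well plates, then fixed and DAPI-stained, with nuclei counted from automated high-throughput microscope images.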

| SMILES | cell count (G361) | cell count (IPC-298) | cell count (IST-MEL1) | cell count (LB2518-MEL) | cell count (LOXIMVI) | cell count (MEL-HO) | cell count (MZ2-MEL) | cell count (MeWo) | cell count (RPMI7951) | cell count (RVH-421) | cell count (SkMel28) | cell count (SkMel2) | cell count (SkMel30) | cell count (SkMel5) | cell count (UACC257) | cell count (UACC62) | cell count (WM115) | cell count (WM1716) | cell count (WM1745) | cell count (WM3526) |
| --- | --- | --- | --- | --- | --- | --- | --- | --- | --- | --- | --- | --- | --- | --- | --- | --- | --- | --- | --- | --- |
| O=c1[nH]nc(Sc2ncc([N+](=O)[O-])s2)n1-c1ccc2c(c1)OCCO2 + C[C@@H](N)c1ccc(C(=O)Nc2ccnc3[nH]ccc23)cc1 [RKI983] (first compound 1 µM, partner dose 2 µM) | 93.8% | 99.2% | 78.7% | 96.3% | 113% | 65.1% | 61.8% | 75.6% | 56.6% | 54.1% | 103% | 82.5% | 90.5% | 68.9% | 61.2% | 58.9% | 93.1% | 53.1% | 55.1% | 109% |
| CC1(C)NC(=O)N(c2ccc([N+](=O)[O-])c(C(F)(F)F)c2)C1=O [nilutamide] + O=S(=O)(c1ccccc1)N(CC(F)(F)F)c1ccc(C(O)(C(F)(F)F)C(F)(F)F)cc1 [T0901317] (first compound 5 µM, partner dose 7 µM) | 66.4% | 77.2% | 98.4% | 98.5% | 80.2% | 96.7% | 95.6% | 78.7% | 91.9% | 88.4% | 58.1% | 82.8% | 92.8% | 62% | 85.6% | 78.9% | 75.4% | 95% | 63.3% | 78.7% |
| O=c1[nH]nc(Sc2ncc([N+](=O)[O-])s2)n1-c1ccc2c(c1)OCCO2 + Cn1nnc2c(C(N)=O)ncn2c1=O [temozolomide] (first compound 1 µM, partner dose 10 µM) | 84.4% | 61.3% | 76.8% | 65% | 99.2% | 78.3% | 89.6% | 81.6% | 76.5% | 112% | 35.4% | 80.9% | 47.6% | 90.8% | 90.8% | 41.5% | 74.1% | 55.7% | 92.8% | 74.2% |
| O=C(O)c1ccc(-c2c[nH]c3ncc(-c4ccccc4)cc23)cc1C1CCCC1 + CCCCCCCCCCCC1=C(O)C(=O)C=C(O)C1=O [Embelin] (first compound 0.8 µM, partner dose 6 µM) | 68.5% | 83.6% | 3.91% | 92.4% | 106% | 70.9% | 80.6% | 83% | 76.5% | 56.5% | 61.2% | 65.4% | 84.5% | 74.9% | 79.6% | 90.9% | 78.9% | 82.5% | 80.2% | 81.8% |
| C[C@@H]1CCN(C(=O)CC#N)C[C@@H]1N(C)c1ncnc2[nH]ccc12 + O=C(O)C(=O)Nc1sc2c(c1C(=O)O)CCNC2 [TCS401] (first compound 5 µM, partner dose 8.33333 µM) | 107% | 107% | 100% | 96.8% | 103% | 97.3% | 95.8% | 102% | 100% | 83.3% | 136% | 98.2% | 121% | 99.2% | 93.7% | 139% | 106% | 104% | 67% | 83.5% |
| C[C@@H]1CCN(C(=O)CC#N)C[C@@H]1N(C)c1ncnc2[nH]ccc12 + NCC(=O)Nc1ccc(-n2nc(C(F)(F)F)cc2-c2ccc3c(ccc4ccccc43)c2)cc1 [OSU03012] (first compound 5 µM, partner dose 5 µM) | 74.6% | 66.7% | 95.4% | 108% | 72.1% | 85.6% | 106% | 94.9% | 118% | 112% | 24.1% | 44.1% | 54.2% | 61.7% | 87.1% | 76.7% | 89.6% | 90% | 67.8% | 59.8% |
| COc1cc(Nc2ncc(F)c(Nc3ccc4c(n3)NC(=O)C(C)(C)O4)n2)cc(OC)c1OC [Tamatinib] + CC(C)(C)c1cnc(CSc2cnc(NC(=O)C3CCNCC3)s2)o1 [SNS-032] (first compound 2 µM, partner dose 0.05 µM) | 82.3% | 101% | 73.4% | 82.6% | 31.6% | 84.2% | 78.7% | 76.9% | 26.1% | 91.7% | 49.2% | 71.4% | 90.3% | 58% | 84.3% | 75.6% | 65.5% | 75% | 44.7% | 74% |
| O=c1[nH]nc(Sc2ncc([N+](=O)[O-])s2)n1-c1ccc2c(c1)OCCO2 + CCCCCCCCc1ccc(CCC(N)(CO)CO)cc1 [fingolimod] (first compound 1 µM, partner dose 10 µM) | 0.648% | 39.3% | 5.46% | 0.604% | 12.7% | 1.53% | 11.2% | 12.6% | 0.266% | 7.93% | 1.59% | 0.491% | 11.5% | 38.6% | 63.6% | 10.2% | 15.7% | 21.8% | 6.25% | 18.9% |
| O=c1[nH]nc(Sc2ncc([N+](=O)[O-])s2)n1-c1ccc2c(c1)OCCO2 + Cc1cc(Nc2cc(N3CCN(C)CC3)nc(/C=C/c3ccccc3)n2)n[nH]1 [ENMD2076] (first compound 1 µM, partner dose 0.2 µM) | 89.2% | 93.8% | 93.9% | 78.3% | 90.4% | 98.9% | 92.2% | 95.1% | 78.5% | 88.7% | 59.6% | 110% | 110% | 91.2% | 90.3% | 66.6% | 69.8% | 81.7% | 67.9% | 92.4% |
